Data from PubChem BioAssay AID1030 (National Center for Advancing Translational Sciences (NCATS), 2008).
Among all 220,000 compounds or so, about 16,000 (7.3%) were called active. This list was built around the results that the source calls inconclusive (neither active nor inactive); the mix of calls is not that of the screen. Calls follow the shape of the dose curve; as a rule, active = well fitted inhibition curve with a large enough effect (not every such curve was filed as active); inconclusive = small, poorly fitted or top-dose-only effect, or another doubt; inactive = no such curve, though single readings can be large or run the other way. Potencies of inconclusive entries are doubtful fits and often do not repeat.

Target: Aldehyde dehydrogenase 1A1 (Homo sapiens) (UniProt P00352)
Experiment: qHTS Assay for Inhibitors of Aldehyde Dehydrogenase 1 (ALDH1A1)
Conditions: Purified ALDH1A1, NADH fluorescence, propionaldehyde substrate; series mostly up to 75.3 µM
Potency is read from the fitted curve at half-maximal effect; tags tell the direction and shape of the fitted curve.

UniProt P00352, sequence (P00352 whole entry, looked up): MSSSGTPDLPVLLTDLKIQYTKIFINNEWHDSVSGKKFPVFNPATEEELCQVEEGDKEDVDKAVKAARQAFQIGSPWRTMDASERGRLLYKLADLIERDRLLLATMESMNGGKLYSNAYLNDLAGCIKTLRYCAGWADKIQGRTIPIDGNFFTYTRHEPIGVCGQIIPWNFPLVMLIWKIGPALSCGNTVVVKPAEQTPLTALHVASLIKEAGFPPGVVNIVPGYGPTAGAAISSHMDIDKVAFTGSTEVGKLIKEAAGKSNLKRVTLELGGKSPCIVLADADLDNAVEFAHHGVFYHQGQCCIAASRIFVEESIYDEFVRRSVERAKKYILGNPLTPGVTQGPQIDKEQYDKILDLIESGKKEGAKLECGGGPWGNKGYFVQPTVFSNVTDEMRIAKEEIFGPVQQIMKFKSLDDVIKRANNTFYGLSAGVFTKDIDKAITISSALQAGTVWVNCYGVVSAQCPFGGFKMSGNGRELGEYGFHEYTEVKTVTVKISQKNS

Potency, inactive:
CS(=O)(=O)N1CCC2(CCN(C(=O)Nc3cccc(F)c3)CC2)CC1, Cc1ccc(CSCCNC(=O)c2ccc(NS(C)(=O)=O)cc2)cc1, CCCCN(C(=O)CSc1nnc(-c2ccccc2OC)n1C)c1c(N)n(Cc2ccccc2)c(=O)[nH]c1=O, CCc1ccc(CCC(=O)Nc2nnc(CC)s2)o1, Cc1ccc(-c2c(C(=O)NNC(=S)NCC3CCCO3)csc2C)cc1 (centres undefined)

Potency, inconclusive:
COc1ccc2c(c1)Cc1sc(NC(C)=O)nc1-2 23.8 µM [inhibitor, single point], O=C(OCC(=O)N1CCN(C(=O)c2ccco2)CC1)c1cc(-c2ccc(Cl)c(Cl)c2Cl)nc2ccccc12 39.8 µM [inhibitor, single point], COC(=O)c1ccc(C2c3c(oc4ccccc4c3=O)C(=O)N2CCCN2CCOCC2)cc1 (centres undefined) 22.4 µM [inhibitor, partial curve], N#Cc1cccc(NC(=O)N2CC[C@@]3(CCCN(C(=O)c4ccco4)C3)C2)c1 31.6 µM [inhibitor, single point], COc1ccc(CNC(=O)CCSc2nc(-c3ccc4c(c3)OCO4)cc(C(F)(F)F)n2)cc1 25.1 µM [inhibitor, partial curve], CCOC(=O)/C(C#N)=C/c1cn(CCC(=O)O)nc1-c1ccc(OC)cc1 39.8 µM [inhibitor, single point], Cc1csc(-c2coc3cc(O[C@@H]4O[C@H](CO)[C@@H](O)[C@@H](O)[C@H]4O)ccc3c2=O)n1 39.8 µM [inhibitor, single point], COc1ccc(/C=N/Nc2nc3ccccc3c(=O)[nH]2)cc1 35.5 µM [inhibitor, partial curve], CCC(C)(C)c1ccc(Oc2ccc(NC(=O)COC(=O)C3=COCCO3)cc2)cc1 28.2 µM [inhibitor, single point], CCOc1cccc(C2C(C(=O)c3ccc(C)o3)=C(O)C(=O)N2Cc2ccncc2)c1 (centres undefined) 44.7 µM [inhibitor, single point], Cc1cc(N(C)/N=C/c2ccccc2)nc(-c2ccccc2O)n1 39.8 µM [inhibitor, single point]

Potency, active:
Cn1c(CC2Sc3ccccc3NC2=O)nnc1SCC(=O)c1ccc(Cl)cc1 (centres undefined) 3.98 µM, CCOC(=O)CN1C(=O)C(O)(CC(=O)c2ccco2)c2ccccc21 (centres undefined) 0.158 µM, CCCOC(=O)CN1C(=O)c2ccccc2C1=O 22.4 µM
